Laboratory results as given in PubChem BioAssay AID624296 (National Center for Advancing Translational Sciences (NCATS), 2012).
In all, about 350,000 compounds went through this assay and about 9,900 (2.8%) were called active. The inconclusive results got no clear call from the source; some entries with a clear call stand among them for comparison. Calls follow the shape of the dose curve; as a rule, active = well fitted activation curve with a large enough effect; inconclusive = small, poorly fitted or top-dose-only effect; inactive = no such curve, though single readings can be large or run the other way. No potency is given beside an inconclusive call; the fits are too rough.

Assay: A quantitative high throughput screen for small molecules that induce DNA re-replication in MCF 10a normal breast cells. Also: nearly all actives have a fitted effect of over 50% in size.
Conditions: MCF 10A DNA re-replication, Hoechst nuclear intensity, 48 h; series mostly up to 46.1 µM
Potency is read from the fitted curve at half-maximal effect; tags tell the direction and shape of the fitted curve.

Structure (SMILES)	Potency
CCOC(=O)c1cc(-c2ccc(F)cc2)n(CCC(=O)NC2CCN(Cc3ccccc3)CC2)c1C	inconclusive [activator, single point]
C=CCOc1ccc(C2CC(C)=NN2c2ccccc2)cc1 (configuration not stated)	active: 20.6 µM
Cc1ccc(NC(=O)c2ncn(CCCN(C)CCc3ccccn3)n2)cc1C	inactive
O=c1[nH]c(NNC(=S)NCc2ccccc2)nc2c1C1(CCCCC1)Cc1ccccc1-2	active: 11.6 µM
COc1ccccc1CNC(=O)C(NS(=O)(=O)c1cccc2nsnc12)C(C)C (configuration not stated)	inactive
COc1ccc(N(CC(=O)N2CCN(c3ccc(Cl)cc3)CC2)S(=O)(=O)c2c(C)noc2C)cc1	inactive
C=CCC[C@H](Cc1ccc(F)cc1)C(=O)OC[C@H]1CCCN1C(=O)[C@@H](CC=C)CC(=O)NCCO	inactive
CSc1ccccc1NC(=O)COc1ccc(Cl)cc1C	inconclusive [activator, partial curve, poor fit]
CC1Cc2ccccc2N1C(=O)CSc1nc(-c2ccccc2)cs1 (configuration not stated)	inactive
CC(=O)Nc1ccc(CCc2nc3ccccc3[nH]2)cc1	inactive
Cc1ccc(S(=O)(=O)NCC2CCC(C(=O)NCCCN3CCCC3=O)CC2)cc1 (configuration not stated)	inactive
FC(F)(F)c1ccc2c(c1)nc1n2CCCC1	inconclusive [activator, single point]
COCCN(CCOC)S(=O)(=O)c1ccc(C(=O)Nc2nnc(C)o2)cc1	inactive
CCn1nc(NC(=O)Cc2ccc(OC)cc2)c2cc3cccc(C)c3nc21	active: 4.11 µM
O=C(Nc1ncc(Cc2cccc([N+](=O)[O-])c2)s1)c1ccco1	inconclusive [activator, single point]
Cc1cc(OCC(=O)Nc2ccc(N3CCCC3)cc2)cc(C)c1Cl	inconclusive [activator, single point]
CC(=O)C(Cc1ccccc1)NC(=O)COC(=O)c1cccc(C)c1[N+](=O)[O-] (configuration not stated)	inactive
CCC1Nc2ncnc(N3CCCCC3)c2N(Cc2ccc(OC)cc2)C1=O (configuration not stated)	inactive
O=c1[nH]c(SCc2nc3ccccc3c(=O)n2-c2ccccc2C(F)(F)F)nc2ccccc12	inconclusive [activator, single point]
O=C(Nc1ccc2ccccc2c1)Nc1ccc2snnc2c1	active: 5.8 µM
Oc1ccc(Cl)cc1-c1cc(-c2ccccc2)n[nH]1	inconclusive [activator, single point]
COc1ccc(C2=NNC(=O)C2(C)Br)cc1 (configuration not stated)	inactive
COC(=O)CCCCCN1C(=O)/C(=C\c2ccncc2)SC1=S	active: 25.9 µM
COc1ccc(NC(=O)c2cc(-c3ccco3)on2)c(OC)c1	inconclusive [activator, partial curve, poor fit]
Cc1ccc(-c2csc3ncnc(SCC(=O)O)c23)cc1	inactive
Cc1cc(C)c2nc(-c3ccco3)cc(C(=O)O)c2c1	inconclusive [activator, partial curve, poor fit]

Structure (SMILES)	Potency
CCOc1cc(/C=N\NC(=O)Cc2ccccc2)ccc1OCC(=O)Nc1ccc(C)c(C)c1	active: 14.6 µM
Cc1ccc(NC(=O)CC2C(=O)N(Cc3ccccc3)C(=S)N2NC(=O)c2cccc(F)c2)c(C)c1 (configuration not stated)	inconclusive [activator, partial curve, poor fit]
CN(C(=O)CCN1C(=O)/C(=C/c2ccccc2F)SC1=S)C1CCS(=O)(=O)C1 (configuration not stated)	inconclusive [activator, partial curve, poor fit]
COC(=O)c1cc(OC)c(OC)cc1NC(=O)C(C)Sc1ccc(C)cc1 (configuration not stated)	active: 3.66 µM
Cc1ccc(O)c(-c2cc(-c3cccc(Br)c3)n[nH]2)c1	inconclusive [activator, single point]
CCN(CC(=O)NCc1cccs1)C(=O)c1cccc(S(=O)(=O)NCc2ccccc2)c1	inactive
CCN1C(=O)CC(SC2CC(=O)N(CC)C2=O)C1=O (configuration not stated)	inconclusive [activator, single point]
CCOCCCN1CN(Cc2ccccc2)CNC1=S	inactive
Cn1c(CSCc2ccc(Cl)c(Cl)c2)nnc1SCC(=O)Nc1nccs1	inconclusive [activator, partial curve, poor fit]
Cc1ccc2c(N)[nH]nc2n1	inconclusive [activator, partial curve, poor fit]
COc1cc(/C=C2\SC(=S)N(CCC(=O)N3CCN(C)CC3)C2=O)cc(OC)c1OC	inconclusive [activator, single point]
COC(=O)C(CCSC)NC(=O)Cn1ncc2c(=O)oc3ccccc3c21 (configuration not stated)	inactive
CCC(=O)NCCCCNC(=O)CC	inconclusive [activator, partial curve, poor fit]
CCOC(=O)C1CCN(Cc2coc3c(Cl)cc(Cl)cc3c2=O)CC1	inconclusive [activator, single point]
O=C(c1c(F)cccc1F)N(Cc1ccccn1)C1CCCC1	inactive
COc1ccc(N2C(=O)CC(SCC(=O)O)C2=O)cc1 (configuration not stated)	inactive
Cc1cc(OC(C)C(=O)NCc2ccccn2)c2c(C)c(C)c(=O)oc2c1 (configuration not stated)	inconclusive [activator, partial curve, poor fit]
CCCN(CCC)CCNC(=O)C1CCN(S(=O)(=O)c2cccc3nsnc23)CC1	inactive
CN(C)c1nc(=NCc2cccs2)ss1	inconclusive [activator, single point]
CC(C)=N/N=C1/NC(=O)C(c2ccc(Cl)cc2)S1 (configuration not stated)	inactive
Cc1noc(NS(=O)(=O)c2ccc(N/C=C\C(=O)c3cccc4ccccc34)cc2)c1C	inconclusive [activator, single point]
Cc1ccc(C)c(S(=O)(=O)N2CCCCC2CCNC(=O)C(=O)NCCc2ccco2)c1 (configuration not stated)	inactive
C/C(=N\NC(=O)c1cc(C)nc2ccccc12)c1ccccn1	inconclusive [activator, single point]
COCCN1C(=O)N[C@@H](c2cccc(C(F)(F)F)c2)[C@@H](C(=O)OC)[C@H]1C	inactive
COc1ccc(-c2nc(N)ncc2-c2ccccc2)c(O)c1	inactive
Cc1c(NC(=O)c2cc(-c3cccs3)nc3ccccc23)c(=O)n(-c2ccccc2)n1C	inactive

Structure (SMILES)	Potency
COc1ccc(C(CNC(=O)c2ccc(-c3cccc(C(F)(F)F)c3)o2)N2CCOCC2)cc1 (configuration not stated)	inconclusive [activator, single point]
CC1=C(C(=O)Nc2cc(C(=O)N3CCN(c4cccc(C)c4C)CC3)ccc2C)SCCO1	inactive
COc1cc(OC)cc(-c2nc(SCC(=O)Nc3ccccc3F)n[nH]2)c1	inconclusive [activator, partial curve, poor fit]
Cc1cccc(NC(=O)c2sc3nc(N4CCOCC4)c4c(c3c2N)CCCC4)c1	active: 2.91 µM
Cc1ccc(NC(=O)Cn2cc([N+](=O)[O-])nc2C)cc1C	inactive
CC(C)=CCN1CCNC(=O)C1CC(=O)NCc1nc(C)c(C)s1 (configuration not stated)	inactive
S=c1[nH]nc(-c2ccc3ccccc3n2)n1-c1ccccc1	inactive
COC(=O)C1=C(C)N(CCCC(=O)O)C(=O)NC1c1ccccc1OS(=O)(=O)c1ccccc1[N+](=O)[O-] (configuration not stated)	inactive
Cc1cccc(NC(=O)CSCC(=O)Nc2ccc(S(=O)(=O)N3CCCCC3)cc2)c1	inconclusive [activator, single point]
O=C(CSc1nc(-c2ccccc2)c(-c2ccccc2)[nH]1)NCc1ccco1	active: 14.6 µM
CCc1noc(C)c1C(=O)Nc1nc2ccc(F)cc2s1	inconclusive [activator, partial curve, poor fit]
COc1ccc(OCC(=O)OCC(=O)NC2CCCCC2C)cc1 (configuration not stated)	inactive
O=C(COc1ccc(Cl)cc1Br)Nc1ccccc1N1CCCC1	inconclusive [activator, single point]
CC(C)(C)c1cc(CCC(=O)N2CCCC2)cc(C(C)(C)C)c1O	inactive
O=C(NCCN1CCN(c2ccc([N+](=O)[O-])cc2)CC1)NCc1ccccc1	inconclusive [activator, full curve, poor fit]
CCc1ccc(NC(=O)N(C2CCC(C)CC2)C2CCN(C(C)=O)CC2)cc1 (configuration not stated)	inconclusive [activator, full curve, poor fit]
Cn1nc(-c2ccccc2)c(CSc2cccc(Cl)c2)c1Cl	active: 5.17 µM
COC(=O)c1c(NC(=O)c2ccc(Br)o2)sc(C)c1C	inconclusive [activator, single point]
O=C(/C=C\c1ccco1)Nc1nc(-c2ccccc2)cs1	inconclusive [activator, single point]
CN(C)S(=O)(=O)c1ccc(N2CCCC2)c(C(=O)Nc2nc3ccccc3s2)c1	inconclusive [activator, partial curve]
C=CCNC(=S)Nc1cc(Cl)ccc1OC	inactive
Cc1ccc(NC(=O)CSc2nnc(-c3ccncc3)o2)cc1	inactive
COc1ccc(CN(C)Cc2cc(=O)oc3cc(C)c(C(C)C)cc23)cc1OC	inconclusive [activator, single point]
Cc1ccc(C(=O)CC(C(=O)O)P(=O)(c2ccccc2)c2ccccc2)cc1 (configuration not stated)	inactive
COc1ccc(CN(C)C(=O)/C=C/c2ccc(S(=O)(=O)N3CCOCC3)cc2)cc1F	inactive
